Experimental data as given in the supplement of paper PMC11417369.
Some of the results follow.

The sequences below were run on PfAP2-HC AP2 domain (GST-tagged) (assay: gcPBM binding intensity (ln(normalized median fluorescence intensity)); higher = stronger DNA binding).
In short: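 Each value is the highest Masliner-normalised natural-log median intensity across replicate spots of either orientation of a probe. The probes were primer-extended double-stranded 36-bp intergenic genomic sequences on an Agilent 4 × 180k array, alongside negative controls, exposed for 1 h to GST-tagged P. falciparum DNA-binding domains expressed in E. coli. Bound protein was picked up with Alexa488 anti-GST antibody and scanned at 488 nm.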

Q: Which “gcPBM binding intensity (ln)” value does the source give for “ATATATGACAAATGTAGTACAAATTATTGTATCATA [XGTACX_site3675]” here?
A: 9.94

Q: “AGAATATTTAAAAAAGGTACACAAAAACCAAAATAA [XGTACX_site8569]” was tested. Which “gcPBM binding intensity (ln)” value did it give?
A: 9.76

Q: For “TTATTGCATATTTACACACGTACTAATTTAAACAAG [CACACA_site971]”, which “gcPBM binding intensity (ln)” value is on record?
A: 9.78

Q: “TATTAATACAGACACACACACACACCCAATAAAATA [CACACA_site243]” was tested. Which “gcPBM binding intensity (ln)” value did it give?
A: 10.8

Q: “ATAAATTCATATATGAGTACTAAAAATATCTTTTTC [XGTACX_site5541]” was tested. Which “gcPBM binding intensity (ln)” value did it give?
A: 9.54

Q: Which “gcPBM binding intensity (ln)” value does the source give for “GATATTATGTGTTTGGTATTTTTTGATGTTGGTAGG [XGTACX_negctrl_site563]” here?
A: 9.82

Q: With “TAGAACAAATAAAACACACACATATAAATATAGATG [CACACA_site7325]” as the sequence, how does the “gcPBM binding intensity (ln)” value read?
A: 10.2

Q: For “TCTTTCTAAAGATGTAGTACAAAATAAATATAATAT [XGTACX_site6564]”, which “gcPBM binding intensity (ln)” value is on record?
A: 9.45

Q: Which “gcPBM binding intensity (ln)” value does the source give for “TTTATACAAACAACTTTATATTAATGTTTAACGGAG [GTGCAC_negctrl_site396]” here?
A: 9.23

Q: How did the “gcPBM binding intensity (ln)” value turn out when “AAGGCAAACAAACACACACACATATATACATATATA [CACACA_site2122]” was run?
A: 10.4

Q: Which “gcPBM binding intensity (ln)” value does the source give for “TTATCACACCTTTTTTGTACGAAATAAAAAAAAAAA [XGTACX_site5564]” here?
A: 9.12

Q: “TAATATGCTCATGTAACACACATTTGCATATTTTTC [CACACA_site1357]” was tested. Which “gcPBM binding intensity (ln)” value did it give?
A: 9.96

Q: “GTGCAAAATATTTTTACACACAAATTCTTACAACAG [CACACA_site7556]” was tested. Which “gcPBM binding intensity (ln)” value did it give?
A: 10

Q: With “ATATCTATGTTTATCTCGAATAACTTAAAAAATTAT [CACACA_negctrl_site1131]” as the sequence, how does the “gcPBM binding intensity (ln)” value read?
A: 9.58

Q: With “CATACAGACATACATACACACATACATACAGACATA [CACACA_site6996]” as the sequence, how does the “gcPBM binding intensity (ln)” value read?
A: 10.5

Q: How did the “gcPBM binding intensity (ln)” value turn out when “TGTAAATATATATATACACACACACCGAAGCAATAG [CACACA_site8960]” was run?
A: 10.2

Q: With “TTTTTTTTTTTTTAAACATGCATATTAATATTATAT [TGCATGCA_site820]” as the sequence, how does the “gcPBM binding intensity (ln)” value read?
A: 9.53

Q: How did the “gcPBM binding intensity (ln)” value turn out when “GTATATCACACATTTGCATGTTGTCAATAGTTTATC [TGCATGCA_site134]” was run?
A: 9.9

Q: With “TAAAAAGGAAGACACACACACACATATATAAATATA [CACACA_site7657]” as the sequence, how does the “gcPBM binding intensity (ln)” value read?
A: 10.6

Q: For “TATATACACATATATAAACACACAAAAAAAAAAAAA [CACACA_site8626]”, which “gcPBM binding intensity (ln)” value is on record?
A: 9.82

Q: Which “gcPBM binding intensity (ln)” value does the source give for “ATACAAATTGTTTAAAGTACAAATTACACCTCTTAA [XGTACX_site6888]” here?
A: 9.69

Q: How did the “gcPBM binding intensity (ln)” value turn out when “GTATTACAACGACACACACACCTATATATCATAGTA [CACACA_site7877]” was run?
A: 10.5

Q: How did the “gcPBM binding intensity (ln)” value turn out when “ACATTAAAAAAAAAATGTACATAAATATTTTTCCTT [XGTACX_site4361]” was run?
A: 9.51

Q: For “ATCTTTTATATAAAATGTACAGAGTTTGAAAGAATA [XGTACX_site8826]”, which “gcPBM binding intensity (ln)” value is on record?
A: 9.39
